Measurements taken from publication PMC4336329 (PLoS ONE, 2015).
Out of some 310,000 compounds screened, about 14,000 (4.5%) showed an effect of 50% or more. The effect is printed as a negative number. This is one part of the list.

Biological target: human ether-à-go-go-related gene (hERG) potassium channel (human, UniProt Q12809)
Assay: primary screen, population patch clamp on CHO cells stably expressing hERG
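Also: peak tail current of the secondary pulse compared with the same well before compound.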

Chain of human ether-à-go-go-related gene (hERG) potassium channel (Q12809 whole entry, looked up): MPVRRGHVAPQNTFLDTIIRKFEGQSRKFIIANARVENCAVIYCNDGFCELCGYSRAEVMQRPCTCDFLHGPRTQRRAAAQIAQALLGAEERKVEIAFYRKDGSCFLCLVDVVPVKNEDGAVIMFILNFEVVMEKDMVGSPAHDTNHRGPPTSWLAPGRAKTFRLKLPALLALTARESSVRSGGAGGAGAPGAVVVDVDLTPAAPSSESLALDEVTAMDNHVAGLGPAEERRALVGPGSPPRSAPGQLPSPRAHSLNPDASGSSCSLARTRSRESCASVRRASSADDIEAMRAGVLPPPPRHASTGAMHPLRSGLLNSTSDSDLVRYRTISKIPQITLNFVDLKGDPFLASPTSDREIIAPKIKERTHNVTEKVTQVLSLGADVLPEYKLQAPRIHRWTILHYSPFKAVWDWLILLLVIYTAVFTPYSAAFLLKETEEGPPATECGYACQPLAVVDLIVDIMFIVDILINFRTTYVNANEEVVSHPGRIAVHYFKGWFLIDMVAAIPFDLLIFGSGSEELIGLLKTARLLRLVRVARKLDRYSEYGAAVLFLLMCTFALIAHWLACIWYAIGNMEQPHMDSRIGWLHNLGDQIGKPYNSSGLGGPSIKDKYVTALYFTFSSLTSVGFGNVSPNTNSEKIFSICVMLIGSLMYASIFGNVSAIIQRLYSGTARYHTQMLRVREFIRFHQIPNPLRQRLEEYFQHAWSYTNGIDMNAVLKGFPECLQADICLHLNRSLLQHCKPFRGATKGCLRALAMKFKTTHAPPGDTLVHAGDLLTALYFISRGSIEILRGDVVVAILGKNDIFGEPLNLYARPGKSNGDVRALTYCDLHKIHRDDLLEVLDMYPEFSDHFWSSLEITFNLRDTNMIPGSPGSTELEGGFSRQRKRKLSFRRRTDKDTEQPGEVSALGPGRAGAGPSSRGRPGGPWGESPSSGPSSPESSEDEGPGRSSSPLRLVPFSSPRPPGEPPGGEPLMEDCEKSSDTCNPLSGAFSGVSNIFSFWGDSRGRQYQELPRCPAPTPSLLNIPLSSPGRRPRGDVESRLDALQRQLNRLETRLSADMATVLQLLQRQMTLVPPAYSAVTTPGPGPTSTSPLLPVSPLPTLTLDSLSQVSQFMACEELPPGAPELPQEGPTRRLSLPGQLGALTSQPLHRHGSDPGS

Row | Compound | hERG current change (%, negative = inhibition) at 10uM
1 | CN(C)/C=C1/Oc2c(ccc3ccccc23)C1=O | 4.23%
2 | CC(C)(C)c1ccc(-c2noc(CCC(=O)N3CCOCC3)n2)cc1 | -1.04%
3 | CCC(CNC(=O)c1c(C)nn(-c2ccccc2)c1Cl)c1ccccc1 (centres unmarked) | -2.66%
4 | Cc1cccc(NC(=O)CCC(=O)N/N=C/c2cccnc2)c1 | 1.9%
5 | COc1ccc(C(=O)Nc2cccc(NC(C)=O)c2)cc1OC | 10.9%
6 | C/C=C\C=C/C(=O)Nc1cccc(C2=NOC3(C2)C[C@@H](C(N)=O)N(C(=O)CCCCC)C3)c1 (some centres unmarked) | -37.7%
7 | CN1C(=O)c2cccc3c(Br)ccc(c23)C1=O | -16.2%
8 | COC(=O)c1ccc(NC(=S)N(Cc2cccnc2)Cc2ccco2)cc1 | -29.1%
9 | CCO[C@@H]1OC(C(=O)N2CCCCCCC2)=C[C@H](c2ccc(C(F)(F)F)cc2)[C@H]1CCCO | -21.4%
10 | O=C(/C=C/c1ccc(-c2ccccc2)cc1)NCc1cccnc1 | 4.39%
11 | CCSC(=S)c1c(C)[nH]n(-c2ccccc2)c1=O | 12.9%
12 | O=C(O)c1ccc(-n2nnnc2SCc2ccccc2)cc1 | 8.05%
13 | O=C1CC(N2CC=C(c3ccccc3)CC2)C(=O)N1c1ccc(F)cc1 (centres unmarked) | -19.5%
14 | O=C(CSc1nncn1-c1ccccc1)Nc1ccc(N2CCOCC2)cc1 | 3%
15 | COc1cccc(C(=O)NNC(=O)CCC(=O)O)c1 | 13.7%
16 | CC1(OC(=O)c2cnc3ccccc3n2)C(=O)C=C2C=C(C3CC3)OC=C2C1=O (centres unmarked) | 6.73%
17 | Cc1occc1-c1nnc(SCC(=O)NCC2CCCO2)n1C (centres unmarked) | -2%
18 | COc1ccc(N/C=C(/C(C)=O)c2ccccc2)cc1 | -20.2%
19 | Cc1c(NC(=O)NCc2ccccc2)c(=O)n(-c2ccccc2)n1C | 3.27%

Row | Compound | hERG current change (%, negative = inhibition) at 10uM
20 | Cc1cc(Cl)ccc1NC(=O)C(=O)N/N=C/c1ccc2c(c1)OCO2 | 19.8%
21 | O=C(c1cc(COc2ccc(F)c(F)c2)on1)N1CCN(C2CCCCC2)C(=O)C1 | -56.2%
22 | Cc1onc(-c2c(F)cccc2Cl)c1C(=O)OCc1nnc(-c2ccccc2)o1 | -9.29%
23 | Cc1cc(O)c(C(=O)/C=C/c2ccc(C(C)C)cc2)c(=O)o1 | 12.4%
24 | COc1ccc(/C=C/C(=O)NC(=S)Nc2ccc(S(=O)(=O)N=C(N)N)cc2)cc1OC | -30.3%
25 | CCOC(=O)c1ccc(NC(=O)CN(C)S(=O)(=O)c2ccc(OC)cc2)cc1 | 6.82%
26 | Cc1cc(C)c2sc(N(CCN(C)C)C(=O)c3c(F)cccc3F)nc2c1.Cl | -2.23%
27 | O=C1Nc2ccc(Cl)cc2C(C#CC2CC2)(C(F)(F)F)O1 (centres unmarked) | 2.47%
28 | Cc1ccc(-c2noc(CN(C(=O)C34CC5CC(CC(C5)C3)C4)C(C)C)n2)cc1 | 3.64%
29 | Fc1ccc(NC(=S)Nc2ccc3nccnc3c2)cc1 | 4.15%
30 | Nc1ncnc2c1ncn2Cc1ccccc1 | 8.84%
31 | CC(=O)Nc1ccc(-n2c(=O)c3ccccc3c3ccccc3c2=O)cc1 | 24.3%
32 | COc1ccccc1N1CCN(Cc2cc3c(cc2O)OCO3)CC1 | -39.7%
33 | CCN1CCN(c2ccc([N+](=O)[O-])cc2C(=O)c2ccc(Cl)cc2)CC1 | -72.8%
34 | COc1ccc(-c2nc3c4ccccc4ccn3c2CN2CCCCC2)cc1OC.Cl | 0.736%
35 | O=c1[nH]c(CN2CCN(C/C=C/c3ccccc3)CC2)nc2ccccc12 | -65.2%
36 | O=[N+]([O-])c1ccccc1S(=O)(=O)NCc1ccc(F)cc1 | 7.19%
37 | CCO[C@H]1OC(C(=O)NC2CC2)=C[C@@H](c2coc3ccccc3c2=O)[C@@H]1CCCO | 5.93%
38 | Cn1c(SCC(=O)N/N=C/c2ccco2)nc2ccccc21 | -2.38%

Row | Compound | hERG current change (%, negative = inhibition) at 10uM
39 | O=C(O)c1cccc(-c2ccc(/C=N/Nc3nn[nH]n3)o2)c1 | 16.8%
40 | CN1CCN(C2CCCCCC2)CC1 | 5.61%
41 | O=C(Nc1cccnc1)c1cc(-c2cccc(Cl)c2)on1 | -0.33%
42 | Cc1cc([N+](=O)[O-])nn1CCCC(=O)Nc1c(C)n(C)n(-c2ccccc2)c1=O | 0.638%
43 | CCN1CCN(C(=O)N[C@@H](C(=O)N[C@@H]2C(=O)N3C(C(=O)O)=C(CSc4nnnn4C)CS[C@H]23)c2ccc(O)cc2)C(=O)C1=O.O | 10%
44 | COc1cc(N=Nc2c(C)n(C)n(-c3ccccc3)c2=O)ccc1N | 10.6%
45 | CCOc1ccc(N)c(SSc2cc(OCC)ccc2N)c1 | 19.3%
46 | CC(C)Oc1cccc(C(=O)C2CCCN(C(=O)CCn3cnnn3)C2)c1 (centres unmarked) | -5.7%
47 | CS(=O)(=O)Nc1ccc(C(=O)Nc2ccc(S(=O)(=O)N3CCCC3)cc2)cc1 | -13.7%
48 | CCOc1ccccc1NC(=O)NC1(C(=O)NCC2CCCO2)CCCCC1 (centres unmarked) | 15%
49 | CSc1nnc(CSCc2ccc(Cl)cc2Cl)n1-c1ccccc1 | 6.12%
50 | Cc1cccc(/C=N/NC(=O)CC(=O)NCCc2ccccc2)c1 | 22.9%
51 | CC(C)COc1ccc(C(=O)Nc2sc3c(c2C(=O)O)CC(C)(C)OC3)cc1 | 23.7%
52 | CC(=O)Nc1ccc(Nc2c([N+](=O)[O-])cc(S(C)(=O)=O)cc2[N+](=O)[O-])cc1 | 11%
53 | CC(C)N1CCN(Cc2cccc3nonc23)CC1CCO (centres unmarked) | 1.05%
54 | CCOc1ccc(NS(=O)(=O)c2ccc(NS(=O)(=O)c3ccc(SC)cc3)cc2)cc1 | 9.43%
55 | CCN(CC)c1ccc(N=CN2CCOCC2)cc1 | 0.98%
56 | COc1ccc(S(=O)(=O)N2CCCc3ccccc32)cc1OC | -10.1%
